# Test results from the antibiotic and cytotoxicity screens of Wong et al. (2023).
# The list shows a part of the results.
# Key:
# HSkMC = human skeletal muscle cells; assay: cytotoxicity call (relative viability < 0.9); settings: 10 µM
# HepG2 = assay: cytotoxicity call (relative viability < 0.9); settings: 10 µM
# S. aureus RN4220 = assay: growth inhibition call (relative growth <= 0.2); settings: 50 µM
Compound,cytotoxicity call (HSkMC),cytotoxicity call (HepG2),growth inhibition call (S. aureus RN4220)
C[C@@H]1CCCCO[C@H](CN(C)C(=O)C2CCCCC2)[C@@H](C)CN([C@H](C)CO)C(=O)c2cc(NC(=O)CCC(F)(F)F)ccc2O1,inactive,inactive,inactive
Cc1ccc(S(=O)(=O)Nc2ccc3c(c2)C(=O)N([C@H](C)CO)C[C@H](C)[C@H](CN(C)C(=O)Nc2ccccc2)OCCCC[C@H](C)O3)cc1,inactive,inactive,inactive
O=C(O)C1OC(Oc2cc3oc(-c4ccccc4)cc(=O)c3c(O)c2O)C(O)C(O)C1O (stereo not drawn),inactive,inactive,inactive
O=C(C=Cc1ccccc1)c1ccc(O)cc1,inactive,active,inactive
CCOC(=O)c1c(C)c(Cl)c(O)c(Cl)c1O,inactive,inactive,inactive
C[C@H](CO)N1C[C@H](C)[C@@H](CN(C)C(=O)Nc2cccc3ccccc23)Oc2ccc(NC(=O)Nc3cccc4ccccc34)cc2C1=O,inactive,inactive,inactive
CO[C@@H]1CN(C)C(=O)c2cc(NC(=O)C3CC3)ccc2OC[C@H](C)N(C(=O)Cc2ccccn2)C[C@H]1C,inactive,inactive,inactive
C[C@H]1CN([C@@H](C)CO)C(=O)Cc2cc(NS(=O)(=O)c3cccs3)ccc2O[C@@H]1CN(C)Cc1ccc(-c2ccccc2)cc1,inactive,inactive,inactive
O=C(NO)c1ccc(-c2cn(CC(=O)N3CCOCC3)nn2)cc1,inactive,inactive,inactive
CC(C)NC(=O)N(C)C[C@H]1Oc2ccc(NS(=O)(=O)c3ccc(F)cc3)cc2C(=O)N([C@H](C)CO)C[C@@H]1C,inactive,inactive,inactive
COc1ccc2c3c([nH]c2c1)[C@@H](CO)N(C[C@]13CN(CC2CCOCC2)C1)S(=O)(=O)c1cn(cn1)C,inactive,inactive,inactive
Cc1ccc(S(=O)(=O)N(C)C[C@H]2Oc3ccc(NS(=O)(=O)c4c(C)noc4C)cc3CC(=O)N([C@H](C)CO)C[C@@H]2C)cc1,inactive,inactive,inactive
Cc1noc(C)c1S(=O)(=O)Nc1ccc2c(c1)C(=O)N([C@@H](C)CO)C[C@H](C)[C@H](CN(C)S(=O)(=O)c1ccc(F)cc1)O2,inactive,inactive,inactive
C[C@@H]1CCCCO[C@@H](CN(C)C(=O)Nc2ccccc2)[C@H](C)CN([C@H](C)CO)C(=O)c2cc(NC(=O)Nc3ccc(F)cc3)ccc2O1,inactive,inactive,inactive
COc1ccc(NC(=O)N(C)C[C@H]2Oc3c(NS(=O)(=O)c4cn(C)cn4)cccc3C(=O)N([C@@H](C)CO)C[C@@H]2C)cc1,inactive,inactive,inactive
C[C@@H]1CN([C@H](C)CO)C(=O)c2cc(NC(=O)C3CC3)ccc2O[C@H]1CN(C)S(=O)(=O)c1ccc(Cl)cc1,inactive,inactive,inactive
C/C=C/c1ccc2c(c1)O[C@@H](CN(C)Cc1ccc(C(=O)O)cc1)[C@H](C)CN([C@H](C)CO)S2(=O)=O,inactive,inactive,inactive
COc1ccc(S(=O)(=O)Nc2cccc3c2O[C@@H](CN(C)Cc2ccc(Oc4ccccc4)cc2)[C@H](C)CN([C@H](C)CO)C3=O)cc1,inactive,inactive,inactive
CCS(=O)(=O)Nc1ccc2c(c1)C(=O)N(C)C[C@H](OC)[C@H](C)CN(Cc1ccccn1)[C@@H](C)CO2,inactive,inactive,inactive

Compound,cytotoxicity call (HSkMC),cytotoxicity call (HepG2),growth inhibition call (S. aureus RN4220)
O=C(CCCCCNC(=O)OCCCCO[C@@H]1C[C@H](c2ccc(C(F)(F)F)cc2)C=C(C(=O)N2CCN(Cc3ccc4c(c3)OCO4)CC2)O1)NO,inactive,inactive,inactive
COc1cccc(C(=O)Nc2ccc3c(c2)C(=O)N(C)[C@H]2CC[C@H](CC(=O)NCC4CC4)O[C@H]2CO3)c1,inactive,inactive,inactive
CCS(=O)(=O)N1C[C@]2(CN(Cc3ccc4c(c3)OCO4)[C@H](CO)c3c2c2ccc(cc2n3C)OC)C1,inactive,inactive,inactive
C[C@@H]1CN([C@H](C)CO)C(=O)c2cccc(NS(C)(=O)=O)c2O[C@@H]1CN(C)C(=O)NC1CCCCC1,inactive,inactive,inactive
NC(=O)c1ncn(C2OC(CO)C(O)C2O)n1 (stereo not drawn),inactive,inactive,inactive
O=C(C[C@H]1CC[C@H]2[C@@H](COC[C@H](O)CN2C(=O)Nc2ccc(Cl)c(Cl)c2)O1)NCc1ccncc1,inactive,inactive,inactive
C[C@@H]1CN([C@H](C)CO)C(=O)c2cc(NC(=O)c3ccccc3)ccc2O[C@@H](C)CCCCO[C@H]1CN(C)C(=O)NC1CCCCC1,inactive,inactive,inactive
Cc1cc(NS(=O)(=O)c2ccc(N)cc2)no1,inactive,inactive,inactive
COc1ccc(-c2cc(=O)c3c(O)c(OC)c(OC)c(OC)c3o2)cc1,inactive,active,inactive
COc1ccc(C#Cc2ccc3c(c2)[C@]2(C(=O)N3)[C@H](c3ccccc3OCCO)N3[C@H](c4ccccc4)[C@H](c4ccccc4)OC(=O)[C@H]3[C@@H]2C(=O)NC[C@H](O)c2ccccc2)cc1,inactive,active,inactive
C[C@@H]1CN([C@@H](C)CO)C(=O)CCCn2cc(nn2)CO[C@H]1CN(C)C(=O)Nc1ccc(N2CCCCC2)cc1,inactive,inactive,inactive
CCCNC(=O)N(C)C[C@H]1Oc2cc(-c3ccccc3F)ccc2S(=O)(=O)N([C@H](C)CO)C[C@H]1C,inactive,inactive,inactive
C=C/C=C/[C@@H]1C(=C)CN([C@@H](Cc2ccccc2)C(=O)OC)[C@H]1[C@@H](O)CCn1cc(-c2ccc(C(=O)NO)cc2)nn1,inactive,inactive,inactive
COc1ccc(CN(C)C[C@@H]2OCCCC[C@@H](C)Oc3ccc(NS(=O)(=O)c4cccs4)cc3C(=O)N([C@H](C)CO)C[C@@H]2C)cc1,inactive,inactive,inactive
C[C@@H]1CN([C@H](C)CO)C(=O)c2cccc(NC(=O)Nc3ccc(C(F)(F)F)cc3)c2O[C@H]1CN(C)C(=O)NC1CCCCC1,inactive,active,inactive
CC(=O)OC1CCC2(C)C(CCC3(C)C2CC=C2C4CC(C)(C)CCC4(C(=O)O)CCC23C)C1(C)C (stereo not drawn),inactive,inactive,inactive
C[C@H]1CCCCO[C@H](CN(C)C(=O)c2ccccc2)[C@@H](C)CN([C@@H](C)CO)C(=O)c2cc(NC(=O)c3ccccc3)ccc2O1,inactive,inactive,inactive
C[C@@H]1CCCCO[C@@H](CN(C)S(C)(=O)=O)[C@@H](C)CN([C@@H](C)CO)C(=O)c2cc(NS(=O)(=O)c3ccc(F)cc3)ccc2O1,inactive,inactive,inactive
COC[C@@H]1CN(C(=O)[C@H]2CCCN2C)N1,inactive,inactive,inactive

Compound,cytotoxicity call (HSkMC),cytotoxicity call (HepG2),growth inhibition call (S. aureus RN4220)
C[C@@H]1CN([C@@H](C)CO)C(=O)c2cc(NC(=O)C3CCCCC3)ccc2O[C@@H](C)CCCCO[C@@H]1CN(C)C(=O)Nc1ccccc1,inactive,inactive,inactive
C[C@H]1CN([C@@H](C)CO)C(=O)Cc2cc(NS(=O)(=O)c3ccc(F)cc3)ccc2O[C@H]1CN(C)Cc1ccc(Cl)c(Cl)c1,inactive,active,inactive
C[C@H]1CN([C@@H](C)CO)C(=O)Cc2cc(NC(=O)Nc3ccccc3)ccc2O[C@@H]1CN(C)C(=O)Nc1cccc2ccccc12,inactive,inactive,inactive
CN1C(=O)c2cc(NC(=O)c3ccc(C(F)(F)F)cc3)ccc2OC[C@H]2O[C@H](CC(=O)NC3Cc4ccccc4C3)CC[C@H]21,inactive,active,inactive
Cc1noc(C)c1NC(=O)N(C)C[C@H]1Oc2ccc(NS(=O)(=O)c3c(C)noc3C)cc2CC(=O)N([C@@H](C)CO)C[C@@H]1C,inactive,inactive,inactive
CCCc1cc(C(N)=S)ccn1,inactive,inactive,inactive
COC(=O)c1ccc(C(=O)NN)cc1,inactive,inactive,inactive
C[C@@H]1CN([C@H](C)CO)C(=O)Cc2cc(NC(=O)c3ccncc3)ccc2O[C@@H]1CN(C)S(=O)(=O)c1ccc(F)cc1,inactive,inactive,inactive
COc1c(C)cc(-c2cc3c(c(-c4ccccc4)n2)[Si](C(C)C)(C(C)C)O[C@H]3c2ccccc2)cc1C,inactive,inactive,inactive
C[C@H](CO)N1C[C@H](C)[C@H](CN(C)C(=O)Nc2ccc(F)cc2)Oc2ccc(NC(=O)Cn3cnnn3)cc2CC1=O,inactive,inactive,inactive
CN(C)CCCNC(=O)C[C@@H]1CC[C@@H]2[C@H](COC[C@H](O)CN2C(=O)c2cc(Cl)cc(Cl)c2)O1,inactive,inactive,inactive
COc1cccc(NC(=O)N[C@@H]2C=C[C@@H](CC(=O)N3CCN(C)CC3)O[C@H]2CO)c1,inactive,inactive,inactive
C[C@@H]1CN([C@@H](C)CO)S(=O)(=O)c2ccc(Br)cc2O[C@@H]1CN(C)C(=O)NC1CCCCC1,inactive,inactive,inactive
O=C(C[C@H]1CC[C@@H](NC(=O)Cc2ccccn2)[C@H](CO)O1)NCCCN1CCOCC1,inactive,inactive,inactive
CC(C)[Si](C#C[Si](C(C)C)(C(C)C)C(C)C)(O[C@H](c1ccccc1)c1cn(Cc2ccccc2)nn1)C(C)C,inactive,inactive,inactive
CC=Cc1ccc2n(c1=O)C[C@H]1[C@H](CO)[C@@H](C(=O)NC3CCC3)[C@@H]2N1S(=O)(=O)c1cn(C)cn1,inactive,inactive,inactive
Cc1ccccc1[C@@H](c1ncccc1C)N(C)C(=O)C1CCN(CCOc2ccc(Cl)cc2Cl)CC1,active,inactive,active
C[C@H](CO)N1C[C@H](C)[C@@H](CN(C)Cc2ccc(Oc3ccccc3)cc2)Oc2ncc(-c3ccncc3)cc2C1=O,inactive,inactive,inactive
